According to PubChem BioAssay AID1508624 (National Center for Advancing Translational Sciences (NCATS), 2021):
The whole screen tested about 48,000 compounds, of which about 120 (0.25%) were called active. About 4% were inconclusive and are not listed. The call rests on the fitted dose curve; in most records, active means well fitted activation curve with a large enough effect; inconclusive means small, poorly fitted or top-dose-only effect, or another doubt; inactive means no such curve, though single readings can be large or run the other way. This is one part of the list.

Test: Primary qHTS for Identification of Small Molecule Activators of Huntingtin-Antisense Promoter Activity; further: nearly all actives have a fitted effect of over 55% in size
Conditions: HEK293 HTT-AS promoter firefly luciferase reporter, 24 h; series mostly up to 57.5 µM; activity change, positive = activation: at the top concentration
Excerpt: Assay Provider: Russell L. Margolis M.D.
Department Neurology, Johns Hopkins University School of Medicine, Baltimore, MD
Huntington's Disease (HD) is a neurodegenerative disorder caused by a CAG repeat expansion in exon 1 of huntingtin (HTT). While there are currently no disease-modifying treatments for HD, recent efforts have focused on development of nucleotide-based therapeutics to lower HTT expression. As an alternative to siRNA or oligonucleotide methods, we hypothesized that suppression of HTT expression might be accomplished by small molecules that either (1) directly decrease HTT expression by suppressing HTT promoter activity or (2) indirectly decrease HTT expression by increasing the promoter activity of HTT-AS, the gene antisense to HTT that appears to inhibit expression of HTT.
We developed and employed a high throughput screen for modifiers of HTT and HTT-AS promoter activity using luminescent reporter HEK293 cells; of the 52,041 compounds tested, we identified 898 replicable hits. We used a rigorous stepwise approach to assess compound toxicity and the capacity of the compounds to specifically lower huntingtin protein in 5 different cell lines, including HEK293 cells, HD lymphoblastoid cells, mouse primary neurons, HD iPSCs differentiated into cortical-like neurons, and HD hESCs. We found no compounds which were able to lower huntingtin without lowering cell viability in all assays, though the potential efficacy of a few compounds at non-toxic doses could not be excluded.
SEQUENCE No. (1, 2, 3, etc.); […] (e.g., Cells, Incubation, Reagent, etc.); VALUE and DESCRIPTION.
1; Reagent; 4 uL; 2,500 Hek293 luciferase reporter cells per wells
3; Compound; 23 nL; Control inhibitor / compound library
5; Reagent; 2.5 uL; Firefly Luc reagent; Dual-Glo Luciferase Reporter Assay System (Promega)
6; Time; 10 min; room temperature incubation
7; Detection; Luminescence; FLuc
NOTES (numbers refer to sequence above)
1; High-throughput screening, measuring luminescence from a Hek293 luciferase reporter, was performed in 1,536 well white-walled tissue-culture treated plates. 2,500 cells were plated in 4 µL of Opti-MEM per well using a Multidrop Combi Reagent Dispenser (ThermoFisher).
2; Assay plates were cultured for 24 hours.
3; Control inhibitor (PTC124; final concentration of 50 uM) and compound library (at final concentrations of 460 nM - 57.5 uM) were added to the assay plate using the Kalypsis Pintool Robotic System equipped with 1536 pinheads.
4; Cells were then incubated for 24 hours at 37 degrees C prior to luminescence measurements.
5; In all cases, luminescence was measured using the Dual-Glo Luciferase Reporter Assay System (Promega) following the manufacturer's instructions.
6; Room temperature incubation.
7; Luminescence signal was obtained using the PerkinElmer ViewLux plate reader. Results were normalized to vehicle control (0% activity) and zero RLU (-100% activity).

Activity change, positive = activation, inactive:
Cc1ccc(CN2C(=O)c3ccccc3Sc3ccc(C(=O)NC4CCCC4)cc32)cc1 -37.8%
CCNC(=O)c1c2c(nc3ccccc13)C(=O)N(C1CCCCC1)C2 -11.5%
O=C(Cn1c(SCc2ccccc2F)nc2cccnc21)Nc1ccc(F)c(Cl)c1 -0.177%
Cc1ccc(C(=O)N2CCc3cc(CNC(=O)CCc4ccccc4)ccc32)cc1 -45.3%
O=C(NC1CC(=O)N(c2ccccc2)C1)c1ccco1 (stereo not drawn) -9.82%
COc1cccc(C(=O)NCCc2csc(-c3cccc(F)c3)n2)c1OC -11.3%
CS(=O)(=O)c1ccc(C(=O)Nc2ccc(Cl)c(-c3ccccn3)c2)c(Cl)c1 -4.17%
O=C(Nc1ccc(F)cc1)Nc1ccc2snnc2c1 -22.7%
CCc1cccc(NC(=O)CN(c2ccc(C)cc2)S(=O)(=O)c2cccs2)c1 -19.4%
CCc1nc2ccc(C(=O)NCc3cccc(Br)c3)cc2nc1CC -0.375%
CCc1ccc(S(=O)(=O)Nc2cc3c(cc2N2CCOCC2)n(C)c(=O)c(=O)n3C)cc1 -20.5%
CCOc1ccc(NC(=O)C(=O)NCCc2ccccc2)cc1 13.7% [at 11.5 µM, percent change from vehicle, -100% = no light]
O=C1C(c2c(O)[nH]c3ccccc23)=Nc2ccccc21 -10.6%
O=C(Cn1c(=O)n(CCCS(=O)(=O)C2CCCCC2)c(=O)c2ccccc21)Nc1ccc(F)c(Cl)c1 -12.4%
COc1ccc(C)cc1NC(=O)N1CCN(c2nnc(C)c3c(C)n(-c4ccccc4)nc23)CC1 1.83%
COCCCNC(=O)c1nn(-c2ccc(C)cc2)c(=O)n(C)c1=O -3.37%
O=C(c1cnc(N2CCCCC2)c2ccccc12)N1CCN(c2cccc(Cl)c2)CC1 -33.6%
Cc1cc(C)cc(NC(=O)CCCn2c(=O)c3cccn3c3ccccc32)c1 18%
COc1ccc(-n2ccn(Cc3ccccc3C)c(=O)c2=O)cc1 2.76%
CCc1cc2c(cc3c(=O)n(CC(=O)NC4CCCCC4)ncn32)s1 1.45%
Cc1ccc(OCC(=O)Nc2ccc3[nH]c(=O)sc3c2)cc1 7.1%
CCOc1ccc(N(C(C)C(=O)NCCSc2ccc(C)cc2)S(C)(=O)=O)cc1 (stereo not drawn) -25.1%
COc1cccc(C(c2sc3nc(-c4ccco4)nn3c2O)N2CCN(c3ccccc3F)CC2)c1 (stereo not drawn) -8%
Cc1cc(C)cc(NC(=O)C(=O)NCC(c2cccnc2)N2CCN(c3ccccc3)CC2)c1 (stereo not drawn) -15.5%
CCCCn1cc(S(=O)(=O)c2ccc(CC)cc2)c(=O)c2cc(F)c(N3CCOCC3)cc21 -11%
O=C1CN(C(=O)Nc2ccccc2Cl)C(c2ccccc2)c2c(sc3c2CCCC3)N1 (stereo not drawn) -35.1%
Cc1nn(-c2ccccc2)c2c1N(CCCC(=O)NCc1ccccc1)C(=O)CS2 -17.6%
COc1ccc(-c2cc(C(=O)NCCc3ccc(OC)c(OC)c3)c3ccccc3n2)cc1 -2.88%
COc1ccc(NC(=O)C(C)Sc2cc(-c3ccccc3)nc(C)n2)cc1Cl (stereo not drawn) -34.9%
COc1ccccc1NC(=O)CCn1cnc2onc(-c3ccc(F)cc3)c2c1=O -10.3%
CCCNC(=O)C1CCN(Cc2cc3ccccc3n2Cc2ccccc2)CC1 -24.1%
CC1(C)CCC(c2ccc(Cl)cc2)=C(CN2CCN(c3ccc(C(=O)NS(=O)(=O)c4ccc(N[C@H](CCN5CCOCC5)CSc5ccccc5)c(S(=O)(=O)C(F)(F)F)c4)cc3)CC2)C1 -7.36%
CC1(C)CC(=O)c2cc(-c3nc(-c4ccc(Cl)cc4)cs3)c(=O)n(-c3cccc(F)c3)c2C1 -18.3%
COc1cc(C)ccc1OCCSc1nc2ccc(NC(=O)c3ccc(C)cc3)cc2s1 -2.59%
COc1ccc(-c2ccc(CCC(=O)O)n2CC(=O)Nc2cccc(Cl)c2C)cc1 -29.8%
CC(=O)c1cccc(Nc2nn(-c3ccc(OC(F)(F)F)cc3)nc2C(C)=O)c1 3.61%
COc1ccc(CNC(=O)CCc2c(C)nc3nc(CNC(=O)OC(C)(C)C)nn3c2C)cc1 -18%
Cc1c(C(=O)N(Cc2ccc(N(C)C)cc2)Cc2ccco2)oc2cc(Br)ccc12 -1.53%
Cn1cc(C(=O)NCCc2ccccc2)c(=O)c2cc(S(=O)(=O)N3CCCCCC3)ccc21 -19.4% [at 11.5 µM, percent change from vehicle, -100% = no light]
O=C(CN1C(=O)CC(c2ccco2)Sc2ccccc21)Nc1ccc(Br)cc1 (stereo not drawn) -28.5%
COc1ccccc1-c1noc(-c2ccc(NCc3cccnc3)c([N+](=O)[O-])c2)n1 -0.901%
NC(=O)CSc1nnnn1-c1cccc(O)c1 -16.2%
COc1cccc(CN2C(=O)C3(SCC(=O)N3c3ccc(C(C)C)cc3)c3ccccc32)c1 (stereo not drawn) -35.1%
Cn1c(SCc2ccccc2Cl)nc2c([nH]c3ccccc32)c1=O -12.9%
CCOc1ccc(C(=O)Nc2ccc3oc(-c4ccc(Br)cc4)nc3c2)cc1 -8.21%
CCOC(=O)c1ccc(N2C(=O)Cc3cc(OCC)c(OCC)cc3C2c2ccccc2)cc1 (stereo not drawn) 12.2% [at 11.5 µM, percent change from vehicle, -100% = no light]
O=C(c1ccc2c(c1)OCCO2)N(Cc1cccnc1)c1nc2c(F)cc(F)cc2s1 -20%
COc1cccc(CNS(=O)(=O)c2ccc(-c3cc(C(F)(F)F)on3)s2)c1 -21.4%
COc1ccc(N(CC(=O)Nc2cc(Cl)ccc2C)S(=O)(=O)c2c(C)noc2C)cc1 -48.1%
CCOc1ccc(NS(=O)(=O)c2ccc3[nH]cc(C(=O)N4CCCCCC4)c(=O)c3c2)cc1 -11.6%
COc1ccc(Cc2nc3ccc(C(=O)NCCCN4CCN(C)CC4)cc3o2)cc1 -8.88%
Cc1ccccc1-c1nc(SCC(=O)NCC2CCCO2)c2c(=O)n(C)c(=O)n(C)c2n1 (stereo not drawn) -6.43%
COc1ccc(N2CCN(C(=O)c3sc4nc5n(c(=O)c4c3C)CCC5)CC2)cc1 -9.88%
COCCNC(=O)c1ccc2c(=O)n(CCOC)c(SCC(=O)c3c[nH]c4ccccc34)nc2c1 -22%
Cc1cccc(CCNC(=O)CCc2c(C)nc3ncnn3c2C)c1 -1.77%
O=C(COc1ccc(F)cc1)Nc1ccccc1OCc1cc(=O)n2ccccc2n1 -2.05%
COc1ccc(-c2noc(-c3ccc(NC4CCCCC4)c([N+](=O)[O-])c3)n2)cc1 -7.98%
CCC1CCc2nc3sc(C(=O)Nc4cccc(C(F)(F)F)c4)c(N)c3cc2C1 (stereo not drawn) -24.2%
CCc1nn2c(=O)cc(COC(=O)c3ccc(NC(=O)C4CCCCC4)cc3)nc2s1 19.4%
CCCc1cc(=O)oc2cc(C)c3c(C(C)(C)C)coc3c12 -12.4%
O=C(CCn1c(=O)c2cccn2c2cccnc21)NCc1ccccc1F -0.163%
COc1cccc(NC(=O)c2ccc3[nH]c(C)cc(=O)c3c2)c1 2.98%
NC(=O)c1ccccc1O -7.2%
COC(=O)c1ccc(Cn2nc(-c3ccc(C)cc3)ccc2=O)cc1 -11.6%
Cc1ccc(CCNC(=O)c2cc(C)nc3c2c(C)nn3-c2ccc(C)cc2)cc1 -12.3%
O=C(Nc1ccc(C(F)(F)F)cc1)C1CCN(c2cnccn2)CC1 -30.2%
COc1cccc(Cn2c(SCC(=O)N(C)c3ccccc3)nc3ccccc32)c1 -21.5%
COc1cccc2cc(-c3csc(-c4ccc(Cl)cc4)n3)c(=O)oc12 -13.3%
O=C(Nc1ccc(F)c(C(F)(F)F)c1)Nc1nnc(-c2ccncc2)s1 -33.3%
Cc1ccccc1CNC(=O)c1ccc(CSc2nc3cccnc3n2Cc2ccccc2)cc1 -25.4%
CCc1ccc(-n2c(SCc3ccccc3C)nc3[nH]ncc3c2=O)cc1 -31.2%
Cc1ccc(-c2nc(CS(=O)(=O)CC(=O)NCc3ccc(Cl)cc3)c(C)o2)cc1 -10.2%
COC(=O)c1ccc(Cn2c(SCc3ccccc3)nc3ccncc32)cc1 4.15%
CCCN(C(=O)COc1cc(=O)n(CC)c2ccccc12)c1ccc(C(C)C)cc1 -40.8%
CCc1ccc(-n2nc(C)c3c(C(=O)Nc4cc(C)c(Cl)cc4OC)cc(C)nc32)cc1 -7.4%
CC(C)c1ccc(NC(=O)CCS(=O)(=O)c2cccc3nonc23)cc1 13.9%
CCc1ccc(-c2nn(CC(=O)NCc3ccccc3)c3c2cnc2ccc(C)cc23)cc1 -3.48%
O=C(CN1CCSc2ccccc21)N1CCCCC1 -7.45%
Cc1ccc(CCNC(=O)c2ccc(CNS(=O)(=O)c3ccccc3)cc2)cc1 -31.4%
CCOc1ccccc1NC(=O)Cn1c(=O)n(-c2ccc(F)cc2)c(=O)c2c3c(sc21)CN(C(C)=O)CC3 -7.83%
CCc1nn(CC(=O)NCc2ccc(OC)c(OC)c2)c(=O)c2cc3sc(C)cc3n12 -10.7%
CCOC(=O)c1c(NC(=O)c2cc3nc(-c4ccccc4)cc(C(F)(F)F)n3n2)sc2c1CCC(C)C2 (stereo not drawn) -11.7%
CCCNC(=O)c1cnc2sc(N3CCCCCC3)nn2c1=O 14.3%
Cc1cc(C(=O)Nc2cccc(F)c2)c2c(C)nn(-c3cccc(Cl)c3C)c2n1 -41.4%
CCOc1ccc(C(=O)Nc2ccccc2OCc2cc(=O)n3ccccc3n2)cc1 -6.99%
COc1ccccc1OCCCCn1c(-c2ccc(Cl)cc2)nc2ccccc2c1=O -6.56%
CCOC(=O)N1CCC(=C2c3ccc(Cl)cc3CCc3cccnc32)CC1
COc1ccc(CCNC(=O)c2nc(SCc3ccc(C)cc3)ncc2Cl)cc1OC -45.5%
CCOC(=O)Cn1c(=O)n(-c2ccccc2OC)c2nc(-c3ccccc3F)nc(C(N)=O)c21 -17.7%
CN(C)c1ccc(C(=O)Nc2cccc(-c3nc4cccnc4s3)c2)cc1 8.81%
COc1cccc2c1Oc1ncccc1N(C(=O)CCC(=O)NC(C)C)C2 -6.86%
CCC(=O)N1CCc2cc(CNS(=O)(=O)c3ccc(NC(=O)CC(C)C)cc3)ccc21 -27.6%
CCc1c(C)sc2c1CCN(C(=O)Nc1cc(Cl)c(OC)cc1OC)C2c1ccccc1 (stereo not drawn) -17%
